Data reported in PubChem BioAssay AID588795 (National Center for Advancing Translational Sciences (NCATS), 2011).
Among all 390,000 compounds or so, about 1,400 (0.36%) were called active. This list was built around the results that the source calls inconclusive (neither active nor inactive); the mix of calls is not that of the screen. Calls follow the shape of the dose curve; as a rule, active = well fitted inhibition curve with a large enough effect; inconclusive = small, poorly fitted or top-dose-only effect; inactive = no such curve, though single readings can be large or run the other way. Potencies beside an inconclusive call are fits to weak or partial responses and may not hold up.

target: Flap endonuclease 1 (Homo sapiens) (UniProt P39748); experiment: qHTS Assay for the Inhibitors of Human Flap endonuclease 1 (FEN1).; also: nearly all actives have a fitted effect of over 65% in size; details: Recombinant FEN1 flap cleavage, fluorescence, 15 min; series mostly up to 114 µM
Procedure, shortened: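 Reaction started by adding substrate (50 nM final) to 10 nM enzyme after 15 min room-temperature compound preincubation. Reads at 0 and 15 min, with data normalized and fitted to a four-parameter Hill equation.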
Potency is read from the fitted curve at half-maximal effect; tags tell the direction and shape of the fitted curve.

UniProt P39748, sequence (P39748 whole entry, looked up): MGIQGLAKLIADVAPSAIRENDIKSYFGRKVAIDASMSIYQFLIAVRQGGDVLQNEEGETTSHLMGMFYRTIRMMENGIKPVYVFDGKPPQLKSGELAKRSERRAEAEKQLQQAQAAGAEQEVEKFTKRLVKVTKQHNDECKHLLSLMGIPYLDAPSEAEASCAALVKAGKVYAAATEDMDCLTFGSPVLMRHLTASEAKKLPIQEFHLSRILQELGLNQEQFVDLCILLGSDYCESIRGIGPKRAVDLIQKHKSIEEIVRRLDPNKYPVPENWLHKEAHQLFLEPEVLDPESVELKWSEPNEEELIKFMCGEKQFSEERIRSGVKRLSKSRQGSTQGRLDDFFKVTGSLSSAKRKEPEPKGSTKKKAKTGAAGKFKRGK

Compound | Potency
COc1cc2c(oc(=O)c3cc(C)cc(OC)c32)c2c(C3OC(C)C(O)C(C)(O)C3O)ccc(O)c12 (stereo not drawn) | active: 3.55 µM
COc1cc2nc(COc3ccc(C#N)cc3)n(CC#N)c(=O)c2cc1OC | inconclusive: 35.5 µM [inhibitor, partial curve, poor fit]
CCC(CO)Nc1nc2ccc(Cl)cc2c2ccccc12 (stereo not drawn) | inconclusive: 79.4 µM [inhibitor, single point]
O=C(Cn1cnc([N+](=O)[O-])c1)Nc1ccc(F)c(Cl)c1 | inactive
N=C(N)c1ccc(N=Nc2c(O)ccc3c2[nH]c2ccccc23)cc1 | active: 28.2 µM
O=C(NCC(c1ccc2c(c1)OCO2)N1CCOCC1)c1cccc(Cl)c1 (stereo not drawn) | inactive
COc1ccccc1Nc1nnc(SCc2nnc(-c3cc(OC)c(OC)c(OC)c3)o2)s1 | inconclusive: 50.1 µM [inhibitor, partial curve, poor fit]
Nc1ccc(N2CCN(c3ncc(C(F)(F)F)cc3Cl)CC2)c(C(F)(F)F)c1 | inconclusive: 31.6 µM [inhibitor, partial curve, poor fit]
CN1CCN(c2nc3c(=O)[nH]c(N)nc3n2C2OC(CO)C(O)C2O)CC1 (stereo not drawn) | inactive
CCCCn1c(SC(C)C(=O)c2ccc(OC)cc2)nc2cc(S(N)(=O)=O)ccc21 (stereo not drawn) | inconclusive: 79.4 µM [inhibitor, partial curve, poor fit]
Cc1ccc(S(=O)(=O)c2ccc([N+](=O)[O-])o2)cc1 | inactive
Cc1ccc(-c2ccc(S(=O)(=O)N3CCCC3)cc2)cc1 | inactive
CC(=O)Nc1ccc2nc3c(=O)[nH]c(=O)[nH]c3nc2c1 | active: 28.2 µM
O=C(Nc1ccc(F)c(Cl)c1)Nc1ccc(Cl)cn1 | inconclusive: 89.1 µM [inhibitor, single point]
COc1ccc(-n2ncc(C(=O)NCCc3ccsc3)c2C2CCN(C(=O)OC(C)(C)C)CC2)cc1 | inactive
O=C1C=C(c2ccc3ncccc3c2)C[C@@H](c2ccc(Cl)cc2)C1 | inconclusive: 89.1 µM [inhibitor, partial curve, poor fit]
Cn1ccnc1Sc1cc(NCCCO)c([N+](=O)[O-])c2nonc12 | inconclusive: 39.8 µM [inhibitor, partial curve]
CCOc1ccc(NCc2cc3cc(OC)ccc3[nH]c2=O)cc1 | inconclusive: 89.1 µM [inhibitor, single point]
COc1cc(/C=C2\SC(=O)N(Cc3ccc(Cl)cc3)C2=O)cc([N+](=O)[O-])c1O | inconclusive: 50.1 µM [inhibitor, partial curve, poor fit]
O=C(/C=C/c1ccc([N+](=O)[O-])cc1)NCCc1ccccc1 | inactive
CCN(CC)S(=O)(=O)c1ccc(N(C)Cc2ccc(C(F)(F)F)cc2)nc1 | inconclusive: 17.8 µM [inhibitor, partial curve, poor fit]

Compound | Potency
Cc1cc(F)ccc1-n1nnc(C(N)=O)c1C | inactive
COc1ccc(-n2nc(C(=O)Nc3ccc(Cl)cn3)c3c4ccccc4n(C)c3c2=O)cc1Cl | inactive
O=C1/C(=C\c2c(NCCOCCO)nc3ccccn3c2=O)SC(=S)N1Cc1ccco1 | inconclusive: 79.4 µM [inhibitor, partial curve]
Cc1ccccc1NC(=O)Cn1c(=O)n(CCc2ccccc2)c(=O)c2sc3ccccc3c21 | inactive
O=C(O)CNS(=O)(=O)c1ccc2c3c(cccc13)C(=O)N2 | inconclusive: 56.2 µM [inhibitor, partial curve, poor fit]
Cc1ccc(C)c(NC(=O)c2cc(S(=O)(=O)N3CCCCC3)ccc2N2CCOCC2)c1 | inconclusive: 79.4 µM [inhibitor, partial curve, poor fit]
Cc1nn(C(C)C(=O)NC2CCCCC2)c(=O)c2c1sc1ccccc12 (stereo not drawn) | inconclusive: 70.8 µM [inhibitor, single point]
Cc1ccc(-c2nnc(Nc3ccc(Br)cc3)c3ccccc23)cc1S(=O)(=O)N1CCN(C)CC1 | inactive
CCOc1cccc(=O)c2c(C)n(C)c(C)c12 | inconclusive: 50.1 µM [inhibitor, partial curve, poor fit]
Cc1cc(NC(=O)C(C)Oc2ccc(Cl)cc2Cl)n(-c2ccccc2)n1 (stereo not drawn) | inconclusive: 56.2 µM [inhibitor, partial curve, poor fit]
CC(C)(C)Nc1nc(Cl)nc(NC2CCCCC2)n1 | inactive
COc1cccc(-c2nn(C)c3sc(C(=O)NCc4ccccn4)cc23)c1 | inconclusive: 39.8 µM [inhibitor, partial curve, poor fit]
CCOc1ccc(OCC)c(NC(=O)CSc2nc3cccnc3n2C)c1 | inconclusive: 56.2 µM [inhibitor, partial curve, poor fit]
COc1ccc(CCNC(=O)Cn2c(=O)n(-c3ccc(C)c(C)c3)c(=O)c3c(C)c(C)sc32)cc1OC | inconclusive: 89.1 µM [inhibitor, single point]
COC(=O)C(CC(=O)c1ccc(Br)cc1)n1ccnc1 (stereo not drawn) | inconclusive: 89.1 µM [inhibitor, partial curve]
CC1(C)CC(=O)C2=C(C1)NC1=C(C(=O)c3ccccc31)C2c1ccccc1 (stereo not drawn) | inconclusive: 22.4 µM [inhibitor, partial curve, poor fit]
COc1cccc(C(c2sc3nc(-c4ccco4)nn3c2O)N2CCOCC2)c1 (stereo not drawn) | inactive
Cc1c(C(=O)Nc2cccc(F)c2)oc2c1-c1nn(Cc3c(F)cccc3Cl)cc1CC2 | inactive
O=C(NN1C(=O)CSC1=S)C(=O)NN1C(=O)CSC1=S | inconclusive: 56.2 µM [inhibitor, partial curve, poor fit]
Cc1sc(C(C2C(=O)CC(C)(C)CC2=O)C2C(=O)CC(C)(C)CC2=O)cc1[N+](=O)[O-] | inconclusive: 89.1 µM [inhibitor, single point]
CC(OC(=O)c1cc(O)c2ccccc2c1O)C(=O)Nc1ccc(C(N)=O)cc1 (stereo not drawn) | inconclusive: 79.4 µM [inhibitor, single point]

Compound | Potency
Oc1cc2c(cc1O)[C@H]1c3ccc(O)c(O)c3OC[C@@]1(O)C2 | active: 35.5 µM
N#CC(c1ccc(O)cc1)c1ncc(C(F)(F)F)cc1Cl (stereo not drawn) | inconclusive: 89.1 µM [inhibitor, partial curve, poor fit]
CC1CCc2c(sc(NC(=O)c3ccc(Cn4cc([N+](=O)[O-])cn4)o3)c2C#N)C1 (stereo not drawn) | inconclusive: 89.1 µM [inhibitor, partial curve, poor fit]
COc1ccc(S(=O)(=O)Nc2ccccc2C(=O)Nc2nc(-c3ccc(F)cc3)cs2)cc1OC | inconclusive: 89.1 µM [inhibitor, partial curve, poor fit]
Cc1cc2c(N)cccc2nn1 | inconclusive: 28.2 µM [inhibitor, single point]
O=C1C2CCCCN2C(=O)N1CCCCN1CCN(c2cccc(Cl)c2)CC1 (stereo not drawn) | inactive
CC(C)CC(C(=O)OCC(=O)Nc1cccc(Cl)c1)N1C(=O)C2CC=CCC2C1=O (stereo not drawn) | inconclusive: 22.4 µM [inhibitor, partial curve, poor fit]
CCn1c(C)cc(=S)c2ccccc21 | inconclusive: 56.2 µM [inhibitor, partial curve, poor fit]
CC[C@]1(C(=O)OC)[C@H]2C(=O)N(Cc3ccccc3)C(=O)[C@H]2[C@H]2CN=C(SCc3ccccc3)N21 | inconclusive: 79.4 µM [inhibitor, partial curve, poor fit]
COc1ccc(S(=O)(=O)N2CCN(c3ccc(C)cc3C)CC2)cc1OC | inconclusive: 20 µM [inhibitor, partial curve, poor fit]
CCCC(=O)NC(c1ccco1)c1cc([N+](=O)[O-])c2cccnc2c1O (stereo not drawn) | inconclusive: 44.7 µM [inhibitor, partial curve]
O=C(Nc1ccc(-c2nc3ccccc3s2)c(O)c1)c1ccc(Br)cc1 | inactive
CCOc1ccccc1C(=O)Nc1cc(OC)ccc1OC | inconclusive: 39.8 µM [inhibitor, partial curve, poor fit]
COc1cccc2nc3cc(C)c(C)cc3nc12 | inconclusive: 17.8 µM [inhibitor, partial curve, poor fit]
O=C(CSc1nc2ccccc2c(=O)[nH]1)Nc1nc(-c2ccc(Br)cc2)cs1 | inconclusive: 56.2 µM [inhibitor, partial curve, poor fit]
Cc1nn(-c2cccc(Cl)c2)c2nc(-c3ccncc3)cc(C(=O)N3CCOCC3)c12 | inconclusive: 44.7 µM [inhibitor, partial curve, poor fit]
Cc1[nH]c2ccccc2c1Cc1nnc(SCc2ccccc2)o1 | inconclusive: 70.8 µM [inhibitor, partial curve, poor fit]
COc1cccc(-c2coc3cc4oc(=O)c(CCC(=O)O)c(C)c4cc23)c1 | inconclusive: 22.4 µM [inhibitor, partial curve, poor fit]
Cc1ccc([N+](=O)[O-])cc1N=Nc1c(-c2ccc([N+](=O)[O-])cc2)[nH]n(C(N)=S)c1=O | inconclusive: 25.1 µM [inhibitor, partial curve]
Cc1nc(S/C(=C/c2ccc(-c3cc(Cl)ccc3C)o2)C(=O)O)n[nH]1 | inconclusive: 50.1 µM [inhibitor, partial curve]
COc1cc(/C=N/Nc2nn3cnnc3c3ccccc23)cc(OC)c1OC | inconclusive: 25.1 µM [inhibitor, full curve]
